The values below come from the supplement of paper PMC4604168 (melanoma cell lines).

Molecules are shown by their SMILES. The list shows a part of the results. Most values come without repeats; read them as rough.
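Further: cells treated in 1,536-well plates, then fixed and DAPI-stained, with nuclei counted from automated high-throughput microscope images.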

The test system of this experiment is SkMel30. Nature of the experiment: cell count relative to DMSO control; melanoma cells; higher = more viable cells. The following applies: library dose: standard library concentration; 72 h.
Regarding `O=c1[nH]nc(Sc2ncc([N+](=O)[O-])s2)n1-c1ccc2c(c1)OCCO2` + COc1cc(N2CCC(N3CCN(C)CC3)CC2)ccc1Nc1ncc(Cl)c(Nc2ccccc2S(=O)(=O)C(C)C)n1 [NVP-TAE684] (first compound 1 µM, partner dose 0.4 µM), the cell count amounted to 141%. Next, `O=c1[nH]nc(Sc2ncc([N+](=O)[O-])s2)n1-c1ccc2c(c1)OCCO2` + N#Cc1c(O)c2c(-c3ccc(-c4ccccc4O)cc3)csc2[nH]c1=O [A769662] (first compound 1 µM, partner dose 10 µM): 91.1%; `O=c1[nH]nc(Sc2ncc([N+](=O)[O-])s2)n1-c1ccc2c(c1)OCCO2` + O=c1cc(-c2cccc3c2Sc2ccccc2S3)oc(N2CCOCC2)c1 [KU55933] (first compound 1 µM, partner dose 5 µM): 112%. For `O=C(Nc1cccc(Cl)c1)Nc1ncc(CCNc2ncnc3ccsc23)s1` + CC(C)CCN1c2nc(Nc3cc(F)c(O)c(F)c3)ncc2N(C)C(=O)C1C [BID1870] (first compound 0.004 µM, partner dose 1 µM) the value was 63.2%. As to `Cn1cncc1[C@@](N)(c1ccc(Cl)cc1)c1ccc2c(c1)c(-c1cccc(Cl)c1)cc(=O)n2C` [tipifarnib] + COc1cc(N2CCC(N3CCN(C)CC3)CC2)ccc1Nc1ncc(Cl)c(Nc2ccccc2S(=O)(=O)C(C)C)n1 [NVP-TAE684] (first compound 0.05 µM, partner dose 0.4 µM), the cell count came out at 88.8%. Compound `C[C@@H]1CCN(C(=O)CC#N)C[C@@H]1N(C)c1ncnc2[nH]ccc12` + CCCCCCCCCCCC1=C(O)C(=O)C=C(O)C1=O [Embelin] (first compound 5 µM, partner dose 6 µM) came in with a cell count of 103%.

The compound `C[C@@H]1CCN(C(=O)CC#N)C[C@@H]1N(C)c1ncnc2[nH]ccc12` + Cc1cc([N+](=O)[O-])ccc1NS(=O)(=O)c1cc(Cl)ccc1Cl [FH535] (first compound 5 µM, partner dose 5 µM) came in with a cell count of 93.4%. For `O=c1[nH]nc(Sc2ncc([N+](=O)[O-])s2)n1-c1ccc2c(c1)OCCO2` + COc1ccc(COc2ccc(Cc3cnc(N)nc3N)cc2OC)cc1 [GW2580] (first compound 1 µM, partner dose 5 µM) the value was 98.1%; for `O=C(O)c1ccc(-c2c[nH]c3ncc(-c4ccccc4)cc23)cc1C1CCCC1` + Oc1cc(-c2nc(-c3ccccc3)[nH]c2-c2ccncc2)ccc1Cl [L779450] (first compound 0.8 µM, partner dose 1 µM), 84.7%; for `CC1(C)NC(=O)N(c2ccc([N+](=O)[O-])c(C(F)(F)F)c2)C1=O` [nilutamide] + COc1ccc(-c2ccc3c(N4CCOCC4)nc(N4C[C@@H](C)O[C@@H](C)C4)nc3n2)cc1CO [KU0063794] (first compound 5 µM, partner dose 0.1 µM), 90.5%. Compound `O=c1[nH]nc(Sc2ncc([N+](=O)[O-])s2)n1-c1ccc2c(c1)OCCO2` + C[C@@H](Oc1cc(-c2cnn(C3CCNCC3)c2)cnc1N)c1c(Cl)ccc(F)c1Cl [Crizotinib] (first compound 1 µM, partner dose 1 µM) had a cell count of 97.8%. For `O=C(Nc1cccc(Cl)c1)Nc1ncc(CCNc2ncnc3ccsc23)s1` + Cc1cc([N+](=O)[O-])ccc1NS(=O)(=O)c1cc(Cl)ccc1Cl [FH535] (first compound 0.004 µM, partner dose 5 µM) the value was 84.4%; for `O=c1[nH]nc(Sc2ncc([N+](=O)[O-])s2)n1-c1ccc2c(c1)OCCO2` + O=S(=O)(c1ccccc1)N(CC(F)(F)F)c1ccc(C(O)(C(F)(F)F)C(F)(F)F)cc1 [T0901317] (first compound 1 µM, partner dose 7 µM), 101%; for `COc1cc(Nc2ncc(F)c(Nc3ccc4c(n3)NC(=O)C(C)(C)O4)n2)cc(OC)c1OC` [Tamatinib] + O=c1cc(-c2cccc3c2Sc2ccccc2S3)oc(N2CCOCC2)c1 [KU55933] (first compound 2 µM, partner dose 5 µM), 76.8%. Next, `O=C(O)c1ccc(-c2c[nH]c3ncc(-c4ccccc4)cc23)cc1C1CCCC1` + O=C1NC(=O)/C(=C/c2ccc(-c3ccc(F)cc3O)o2)S1 [AS252424] (first compound 0.8 µM, partner dose 5 µM): 105%; `O=c1[nH]nc(Sc2ncc([N+](=O)[O-])s2)n1-c1ccc2c(c1)OCCO2` + CCCCCCCCCCCC1=C(O)C(=O)C=C(O)C1=O [Embelin] (first compound 1 µM, partner dose 6 µM): 87.3%. Next, `O=c1[nH]nc(Sc2ncc([N+](=O)[O-])s2)n1-c1ccc2c(c1)OCCO2` + Oc1cc(-c2nc(-c3ccccc3)[nH]c2-c2ccncc2)ccc1Cl [L779450] (first compound 1 µM, partner dose 1 µM): 73.4%. `O=c1[nH]nc(Sc2ncc([N+](=O)[O-])s2)n1-c1ccc2c(c1)OCCO2` + Oc1nc(-c2ccc(C(F)(F)F)cc2)nc2c1CSCC2 [XAV939] (first compound 1 µM, partner dose 10 µM): the cell count came to 88.9%.

`O=c1[nH]nc(Sc2ncc([N+](=O)[O-])s2)n1-c1ccc2c(c1)OCCO2` + COC(=O)c1sccc1S(=O)(=O)Nc1ccc(Nc2ccccc2)cc1OC [GSK0660] (first compound 1 µM, partner dose 5 µM) registered a cell count of 88%.

The compound `O=C(Nc1cccc(Cl)c1)Nc1ncc(CCNc2ncnc3ccsc23)s1` + COc1ccc2c(c1)CCC1C2CCC2(C)C(NCCCCCCN3C(=O)C=CC3=O)CCC12 [U73122] (first compound 0.004 µM, partner dose 2 µM) showed a cell count of 96.9%. For `COc1cc(Nc2ncc(F)c(Nc3ccc4c(n3)NC(=O)C(C)(C)O4)n2)cc(OC)c1OC` [Tamatinib] + Oc1cc(-c2nc(-c3ccccc3)[nH]c2-c2ccncc2)ccc1Cl [L779450] (first compound 2 µM, partner dose 1 µM) the value was 89.2%; for `O=c1[nH]nc(Sc2ncc([N+](=O)[O-])s2)n1-c1ccc2c(c1)OCCO2` + O=C(Nc1ccccc1)c1cc([N+](=O)[O-])ccc1Cl [GW9662] (first compound 1 µM, partner dose 10 µM), 82%. With `COc1cc(Nc2ncc(F)c(Nc3ccc4c(n3)NC(=O)C(C)(C)O4)n2)cc(OC)c1OC` [Tamatinib] + COc1cc2ncnc(Nc3ccc(Oc4ccccc4)cc3)c2cc1OC [SrcI1] (first compound 2 µM, partner dose 10 µM), the cell count was determined as 65.7%. In the case of `O=c1[nH]nc(Sc2ncc([N+](=O)[O-])s2)n1-c1ccc2c(c1)OCCO2` + CC(C)CCN1c2nc(Nc3cc(F)c(O)c(F)c3)ncc2N(C)C(=O)C1C [BID1870] (first compound 1 µM, partner dose 1 µM), the cell count stood at 67.9%. On to `O=C(O)c1ccc(-c2c[nH]c3ncc(-c4ccccc4)cc23)cc1C1CCCC1` + COC(=O)c1sccc1S(=O)(=O)Nc1ccc(Nc2ccccc2)cc1OC [GSK0660] (first compound 0.8 µM, partner dose 5 µM), for which the cell count worked out at 83.5%. Next, `O=c1[nH]nc(Sc2ncc([N+](=O)[O-])s2)n1-c1ccc2c(c1)OCCO2` + Cn1cc(/C=C2\C(=O)Nc3cccnc32)c2ccccc21 [GW441756] (first compound 1 µM, partner dose 2 µM): 91.5%; `O=c1[nH]nc(Sc2ncc([N+](=O)[O-])s2)n1-c1ccc2c(c1)OCCO2` + COc1ccc(-c2ccc3c(N4CCOCC4)nc(N4C[C@@H](C)O[C@@H](C)C4)nc3n2)cc1CO [KU0063794] (first compound 1 µM, partner dose 0.1 µM): 110%. For the compound `Cn1cncc1[C@@](N)(c1ccc(Cl)cc1)c1ccc2c(c1)c(-c1cccc(Cl)c1)cc(=O)n2C` [tipifarnib] + COc1ccc2c(c1)CCC1C2CCC2(C)C(NCCCCCCN3C(=O)C=CC3=O)CCC12 [U73122] (first compound 0.05 µM, partner dose 2 µM), the cell count amounted to 101%. Compound `O=c1[nH]nc(Sc2ncc([N+](=O)[O-])s2)n1-c1ccc2c(c1)OCCO2` + CCN(CC)CCCCNc1ncc2cc(-c3cc(OC)cc(OC)c3)c(NC(=O)NC(C)(C)C)nc2n1 [PD173074] (first compound 1 µM, partner dose 0.5 µM) had a cell count of 119%. Next, `O=c1[nH]nc(Sc2ncc([N+](=O)[O-])s2)n1-c1ccc2c(c1)OCCO2` + COc1cc2ncnc(Nc3ccc(Oc4ccccc4)cc3)c2cc1OC [SrcI1] (first compound 1 µM, partner dose 10 µM): 100%; `O=c1[nH]nc(Sc2ncc([N+](=O)[O-])s2)n1-c1ccc2c(c1)OCCO2` + O=C1NC(=O)/C(=C/c2ccc(-c3ccc(F)cc3O)o2)S1 [AS252424] (first compound 1 µM, partner dose 5 µM): 96.5%. In turn, `O=c1[nH]nc(Sc2ncc([N+](=O)[O-])s2)n1-c1ccc2c(c1)OCCO2` + CCc1ccc(CCOc2ccc(CC3SC(=O)NC3=O)cc2)nc1 [pioglitazone] (first compound 1 µM, partner dose 10 µM) yielded a cell count of 93.7%.

As for `O=c1[nH]nc(Sc2ncc([N+](=O)[O-])s2)n1-c1ccc2c(c1)OCCO2` + O=C(O)C(=O)Nc1sc2c(c1C(=O)O)CCNC2 [TCS401] (first compound 1 µM, partner dose 8.33333 µM), the cell count was 145%. For `O=c1[nH]nc(Sc2ncc([N+](=O)[O-])s2)n1-c1ccc2c(c1)OCCO2` + Nc1cccc2c1CN(C1CCC(=O)NC1=O)C2=O [lenalidomide] (first compound 1 µM, partner dose 5 µM) the value was 93.9%.
